Source: PubChem BioAssay AID504339 (National Center for Advancing Translational Sciences (NCATS), 2011)
Out of some 390,000 compounds screened, about 17,000 (4.4%) were called active. The inconclusive results got no clear call from the source; some entries with a clear call stand among them for comparison. Calls follow the shape of the dose curve; as a rule, active = well fitted inhibition curve with a large enough effect; inconclusive = small, poorly fitted or top-dose-only effect; inactive = no such curve, though single readings can be large or run the other way. Potencies of inconclusive entries are doubtful fits and often do not repeat.

Biological target: Lysine-specific demethylase 4A (Homo sapiens) (UniProt O75164)
Test: qHTS Assay for Inhibitors of JMJD2A-Tudor Domain; also: nearly all actives have a fitted effect of over 50% in size
Conditions: AlphaScreen JMJD2A-Tudor / H3K4me3 peptide binding; activity change, negative = inhibition: at 114 µM (top of the series)
% is scaled to controls: 0 for no effect and ±100 for the full control effect; potency is read from the fitted curve at half-maximal effect; tags tell the direction and shape of the fitted curve.

Sequence of UniProt O75164 (O75164 whole entry, looked up, the tested form may be a part): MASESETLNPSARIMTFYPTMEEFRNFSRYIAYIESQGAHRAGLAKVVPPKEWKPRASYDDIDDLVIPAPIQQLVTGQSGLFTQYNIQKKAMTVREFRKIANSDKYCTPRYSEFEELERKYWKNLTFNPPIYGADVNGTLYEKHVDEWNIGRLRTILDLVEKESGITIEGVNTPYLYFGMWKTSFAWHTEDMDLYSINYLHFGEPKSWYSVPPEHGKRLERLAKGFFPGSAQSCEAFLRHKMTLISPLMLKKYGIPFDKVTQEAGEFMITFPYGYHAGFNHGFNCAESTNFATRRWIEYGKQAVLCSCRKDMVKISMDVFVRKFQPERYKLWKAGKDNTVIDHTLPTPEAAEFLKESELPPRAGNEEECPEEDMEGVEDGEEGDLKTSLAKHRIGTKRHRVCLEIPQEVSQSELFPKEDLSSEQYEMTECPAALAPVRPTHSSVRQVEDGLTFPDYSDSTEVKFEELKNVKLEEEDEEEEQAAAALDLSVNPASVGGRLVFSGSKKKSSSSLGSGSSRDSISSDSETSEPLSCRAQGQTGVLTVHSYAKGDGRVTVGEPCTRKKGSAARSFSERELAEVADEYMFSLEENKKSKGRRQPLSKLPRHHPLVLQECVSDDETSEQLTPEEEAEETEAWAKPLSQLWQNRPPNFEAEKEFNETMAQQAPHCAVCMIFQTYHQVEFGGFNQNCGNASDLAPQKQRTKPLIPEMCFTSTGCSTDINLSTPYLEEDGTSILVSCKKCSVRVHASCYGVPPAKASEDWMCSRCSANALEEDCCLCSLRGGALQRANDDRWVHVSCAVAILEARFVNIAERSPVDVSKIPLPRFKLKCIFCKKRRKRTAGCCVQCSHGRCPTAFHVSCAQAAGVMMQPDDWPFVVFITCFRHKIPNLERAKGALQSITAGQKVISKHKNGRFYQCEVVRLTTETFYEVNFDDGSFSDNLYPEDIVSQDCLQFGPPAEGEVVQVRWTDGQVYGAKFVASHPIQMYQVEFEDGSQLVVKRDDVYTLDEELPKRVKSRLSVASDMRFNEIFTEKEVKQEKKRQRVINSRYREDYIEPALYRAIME

Activity change, negative = inhibition, inactive:
O=C1OCC(c2ccccc2)=C1c1ccc(S(=O)(=O)N2CCOCC2)s1 -31.6%
CCOC(=O)c1cccc(NC(=O)c2ccc3c(c2)C(=O)N(CC2CCCO2)C3=O)c1 (stereo not drawn) -23.4%
CC(=O)c1cc(NC(=O)c2cccc(C(F)(F)F)c2)c(=O)oc1/C=C/N(C)C -9.23%
O=C(Cn1c(=O)n(Cc2ccco2)c(=O)c2cccnc21)Nc1ccccc1F -5.45%
CC(=O)c1cc(-c2ccc(F)cc2)n(CCC(=O)NCc2ccccc2C)c1C -25.1%
O=C(COC(=O)Cc1cccc(C(F)(F)F)c1)NCC1CCCO1 (stereo not drawn) -9.88%
O=C(Cn1c(=O)n2nc(-c3ccccc3)nc2c2ccccc21)Nc1ccccc1C(F)(F)F -16.2%
CC(Sc1nc(=O)cc(N)n1CCc1ccccc1)C(=O)Nc1ccc(Cl)cc1 (stereo not drawn) -16.2%
COc1ccc(NC(=O)CSc2nnc(-c3ccccc3Cl)n2Cc2ccco2)c(OC)c1 -16.5%
CCOc1ccc(C(=O)CCC(=O)N(CC)CC(=O)NCc2ccc(Cl)cc2)cc1 -13%
CN1CCN(C(=S)NC(=O)/C=C/c2ccccc2Cl)CC1 -24.1%
CCOc1ccc(CCNC(=O)CSCc2ccc(C)cc2)cc1OCC -22.8%

Potency, active:
O=C(O)c1ccccc1OC1=NS(=O)(=O)c2ccccc21 79.4 µM
Cc1cccc(C2(c3cccc(C)c3)CC2C(=O)NCC2CCCO2)c1 (stereo not drawn) 79.4 µM
S=c1[nH]nc(C2CCCCC2)n1/N=C/c1ccncc1 5.01 µM
O=C(Cn1c(=O)n(Cc2ccco2)c(=O)c2c3c(sc21)CCCCC3)Nc1ccccc1 31.6 µM
C#CCOCCOCCOCCNc1nc(N2CCN(C(=O)[C@H]([C@@H](C)CC)n3cc([C@@H](N)CO)nn3)CC2)nc(N2CCN(C(=O)[C@H](Cc3ccc(O)cc3)n3cc([C@@H](N)CC(C)C)nn3)CC2)n1 56.2 µM
COc1cccc(OC)c1-c1nn2c(-c3cc(-c4ccccc4)n[nH]3)nnc2s1 44.7 µM

Potency, inconclusive:
COc1ccc(-c2csc(Nc3ccccc3)[n+]2CC(O)c2ccc([N+](=O)[O-])cc2)cc1 (stereo not drawn) 7.08 µM [inhibitor, full curve]
COc1cc(OC)cc(-c2c(-c3cccs3)c3cc(-c4ccc(N(C)C)nc4)ccc3n2C)c1 15.8 µM [inhibitor, partial curve]
COc1cc(C=C2C(=O)c3ccccc3C2=O)ccc1O 39.8 µM [inhibitor, partial curve]
COc1ccc(OC)c(CNc2ccc(F)c(Cl)c2)c1 63.1 µM [inhibitor, partial curve]
COc1ccc(NC(=O)c2cc(-c3cc(OC)c(OC)c(OC)c3)nc3ccccc23)cc1OC 44.7 µM [inhibitor, partial curve, poor fit]
CN1CCN(c2ccc(NC(=O)c3ccc(-c4ccc(Cl)cc4)o3)cc2)CC1 7.08 µM [inhibitor, full curve]
O=C(C[n+]1ccccc1)N/N=C/c1ccc(Cl)cc1 89.1 µM [inhibitor, single point]
CCN(CC)C(=O)[C@H]1C[C@H](CC(=O)NCCCn2ccnc2)C(=O)N2CCc3c([nH]c4cc(-c5ccco5)ccc34)[C@]12C 50.1 µM [inhibitor, partial curve]
COc1ccc(OCc2nn3c(-c4ccccn4)nnc3s2)cc1 79.4 µM [inhibitor, single point]
S=c1[nH]c2cc(Cl)ccc2s1 25.1 µM [inhibitor, full curve]
COc1ccccc1C(=O)NNC(=O)C1CCCO1 (stereo not drawn) 31.6 µM [inhibitor, partial curve]
O=C(N/N=C/c1cn(Cc2ccccc2)c2ccccc12)c1cc(O)cc(O)c1 44.7 µM [inhibitor, partial curve]
O=C(CN1CCN(c2ccc(O)cc2)CC1)Nc1cc(S(=O)(=O)N2CCCCC2)ccc1Cl 10 µM [inhibitor, full curve, poor fit]
CC1(C)CC(CC(=O)NNc2nc(-c3ccccc3)cs2)C(=O)O1 (stereo not drawn) 39.8 µM [inhibitor, single point]
O=S1(=O)N=C(Oc2ccccc2C(F)(F)F)c2ccccc21 70.8 µM [inhibitor, single point]
COc1cc2c(cc1OC)C(C(=O)NCc1cccnc1)C(c1cccnc1)N(C)C2=O (stereo not drawn) 89.1 µM [inhibitor, single point]
Cc1ccc2oc(=O)c(/C=C(\O)c3sc(C)nc3C)nc2c1 89.1 µM [inhibitor, single point]
CC1CN(Cc2ccccc2)c2ccccc2NC1=S (stereo not drawn) 39.8 µM [inhibitor, partial curve]
O=C(CC1SC(N2CCCC2)=NC1=O)Nc1ccc(C(=O)Nc2ncccc2O)cc1 (stereo not drawn) 17.8 µM [inhibitor, partial curve, poor fit]
CCN(C(=O)C1CCC(CNS(=O)(=O)c2cccc3nsnc23)CC1)c1ccc(C)c(C)c1 (stereo not drawn) 20 µM [inhibitor, full curve]
CCOc1ccc(NC(=O)CN(C)C(=O)c2cc([N+](=O)[O-])ccc2Sc2ccccc2)cc1OCC 31.6 µM [inhibitor, partial curve]
O=c1[nH]c(C2CCN(S(=O)(=O)c3cccc(Cl)c3)CC2)nc2c1nnn2Cc1ccccc1 31.6 µM [inhibitor, partial curve, poor fit]
CC(C)C(c1nnnn1Cc1ccccc1)N1CCN(Cc2ccco2)CC1 (stereo not drawn) 79.4 µM [inhibitor, single point]
CCOC(=O)c1[nH]c(C)c(C(=O)OCC(=O)N2CC(=O)Nc3ccccc32)c1C 79.4 µM [inhibitor, single point]
C[C@H](CO)N1C[C@H](C)[C@@H](CN(C)Cc2ccc(-c3ccccc3)cc2)Oc2c(NS(=O)(=O)c3cn(C)cn3)cccc2C1=O 44.7 µM [inhibitor, partial curve]
